From patent EP2386565A2, “Compounds and methods to inhibit or augment an inflammatory response” (Cambridge Enterprise Ltd., priority 1999, dated 2000)
Where “and” joins values, the source holds several entries; their conditions need not be identical. Identical values can stand only once. Like-named read-outs stand apart in the source and are kept apart here. At least one peptide structure holds a part that was inferred or is arguable (an end, a ring closure or a residue). No end group written: not given here.

Assays:
[1] = biological target: T1, Recombinant human latent TGF-β1 (Homo sapiens, UniProt P01137); assay: TGF-beta activation, direct ELISA-type assay with R2X capture; format: biochemical; set-up: key: +: The number of pluses is a qualitative indicating of the activity of each peptide in each assay; ++: The number of pluses is a qualitative indicating of the activity of each peptide in each assay; +++: The number of pluses is a qualitative indicating of the activity of each peptide in each assay; ++++: The number of pluses is a qualitative indicating of the activity of each peptide in each assay; +++++: The number of pluses is a qualitative indicating of the activity of each peptide in each assay; -: A minus indicates no detectable activity in the assay; conditions: test peptide at 100 nM, 37°C, 90 minutes
T1 construct: 200 ng of latent TGF-β1 (at 20 µg/ml) was incubated with test peptide; purchased R&D Systems; host or cells: CHO cells
T1 sequence (P01137 30-278 limits assumed): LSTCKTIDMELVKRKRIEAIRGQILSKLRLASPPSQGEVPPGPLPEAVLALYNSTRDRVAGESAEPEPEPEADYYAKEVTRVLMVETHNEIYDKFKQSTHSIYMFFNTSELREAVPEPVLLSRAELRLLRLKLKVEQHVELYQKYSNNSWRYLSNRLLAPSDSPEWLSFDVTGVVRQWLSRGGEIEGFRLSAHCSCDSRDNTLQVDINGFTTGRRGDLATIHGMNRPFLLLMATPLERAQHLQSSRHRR

[2] = system: cultured smooth muscle cells; assay: Co-mitogenic effect of MCP-1 with 0.5% fetal calf serum; format: cell-based; conditions: 100 µM
[3] = system: T-tropic HIV (IIIb) in Jurkat T-cells; assay: HIV infection of Jurkat cells, supernatant reverse transcriptase activity; format: cell-based, HIV-1; conditions: 100 µM
[4] = system: MIP1α induced human monocyte migration; assay: Migration of freshly prepared peripheral blood monocytes, MIP1α; format: cell-based
Experimental: (§1) Agents may also be screened in a chemotactic assay which employs human neutrophils, eosinophils, mast cells, basophils, platelets, lymphocytes or monocytes. For monocytes, 9 mls of fresh blood are transferred to a tube containing 1 ml of 3.8% sodium citrate, and left at room temperature for 15 minutes. Five mls of this anti-coagulated blood are carefully layered over 3.5 ml Polymorphprep® (Nycomed Pharma, Oslo), and centrifuged at 500 g for 35 minutes per the manufacturer's instructions. The top band at the sample/medium interface contains monocytes. The monocytes are carefully removed with a glass pipette, and reconstituted to the original volume (5 ml). The cells are washed with PBS plus 10% fetal calf serum, and centrifuged at 400 g for 10 minutes. The washing step is repeated three times before the cells are counted. Cells are resuspended at 1 × 10^7 cells/ml in RPMI-1640 + 10% fetal calf serum (FCS). The monocytes are cultured for two days at 37°C in a humidified atmosphere of 5% CO2-
(§2) On day 2, the cells are counted, spun down, and reconstituted to 1 × 10^7 cells/ml in Gey's balanced salt solution + 1 mg/ml bovine serum albumin (BSA). Chemotaxis is induced in a 48 or 96-well disposable chemotaxis chamber fitted with a 5-8 µm polycarbonate filter for monocytes, neutrophils or eosinophils, or a 3 µm filter for lymphocytes (Uguccioni et al, Eur. J. Immunol., 25, 64 (1995); Loetscher et al., J. Exp. Med., 184, 569 (1996); Weber et al., L Immunol., 4166 (1995)) (PVP free, ChemoTX, Neuroprobe Inc., Cabin John, MD). Twenty-nine µl of chemoattractant or control are added to the lower compartment of each well. The framed filter is aligned with the holes in the corner of the filter frame and placed over the wells. Two and one-half × 10^5 monocytes in 25 µl of Gey's balanced salt solution + 1 mg/ml BSA are added to the upper compartment. The agent is dissolved in MilliQ water and then serially diluted in the Gey's balanced salt solution. In most cases, the serially diluted agent is added to the upper compartment of the chemotaxis chamber. […]

[5] = system: SDF-1α induced human monocyte migration; assay: Migration of freshly prepared peripheral blood monocytes, SDF-1α; format: cell-based
Experimental: as §1, §2

[6] = system: MCP-1 induced human monocyte migration; assay: Migration of freshly prepared peripheral blood monocytes, MCP-1; format: cell-based
Experimental: as §1
On day 2, the cells are counted, spun down, and reconstituted to 1 × 10^7 cells/ml in Gey's balanced salt solution + 1 mg/ml bovine serum albumin (BSA). Chemotaxis is induced in a 48 or 96-well disposable chemotaxis chamber fitted with a 5-8 µm polycarbonate filter for monocytes, neutrophils or eosinophils, or a 3 µm filter for lymphocytes (Uguccioni et al, Eur. J. Immunol., 25, 64 (1995); Loetscher et al., J. Exp. Med., 184, 569 (1996); Weber et al., L Immunol., 4166 (1995)) (PVP free, ChemoTX, Neuroprobe Inc., Cabin John, MD). Twenty-nine µl of chemoattractant or control are added to the lower compartment of each well. The framed filter is aligned with the holes in the corner of the filter frame and placed over the wells. Two and one-half × 10^5 monocytes in 25 µl of Gey's balanced salt solution + 1 mg/ml BSA are added to the upper compartment. The agent is dissolved in MilliQ water and then serially diluted in the Gey's balanced salt solution. In most cases, the serially diluted agent is added to the upper compartment of the chemotaxis chamber. The chamber is incubated at 37°C in a humidified atmosphere of 5% CO2 for 1.5 hours.
To exclude the possibility that peptide 3(1-12)[MCP-1] […] (SEQ ID NO:1) on the chemokine-induced migration of freshly prepared peripheral blood monocytes from 3 donors was tested. Similar to the results for THP-1 cells, 100 µM of peptide 3(1-12)[MCP-1] (SEQ ID NO:1), but not peptide 1[MCP-1] (SEQ ID NO:2) or peptide 2(1-15)[MCP-1] […] Thus, peptide 3(1-12)[MCP-1] (SEQ ID NO:1) is an inhibitor of a broad range of pro-inflammatory chemokines which act on a wide range of target cells (smooth muscle cells, THP-1, Jurkat T-cell line and primary human monocytes). Note that in contrast to THP-1 cells, peptide 2(1-15)[MCP-1]

[7] = system: HIV (MN) infectivity of THP-1 cells; assay: HIV infection of THP-1 cells, immunofluorescence for p24gag; format: cell-based; conditions: 100 µM, HIV strain MN, 72 hours
[8] = system: HIV (IIIb) infectivity of Jurkat T-cells; assay: HIV infection of Jurkat cells, immunofluorescence for p24gag; format: cell-based; conditions: 100 µM
[9] = system: TGFβ1 induced human monocyte migration; assay: Migration of freshly prepared peripheral blood monocytes, TGFβ1; format: cell-based
Experimental: as §1, §2

[10] = system: IL8 induced human monocyte migration; assay: Migration of freshly prepared peripheral blood monocytes, IL8; format: cell-based
Experimental: as §1, §2

[11] = system: chemokine receptors on THP-1 cells; assay: Binding to chemokine receptors on THP-1 cells; set-up: species or system human
THP-1 cells = assay: Agonist activity: agent in the lower compartment of the migration chamber; format: cell-based, human
Source text: Agents with agonist activity may also be identified using the transwell migration assay, where the cells are placed in the upper compartment (see Figure 1) in the absence of agent, and the agent, e.g. peptide 2[MCP-1], is placed at varying concentrations in the lower compartment in place of the chemokine. […] Preferably, agents having agonist activity also stimulate migration of primary human cells, e.g., monocytes, in a transwell migration assay.
To evaluate the agonist activity ofCRD-Leu4Ile11Cys13 peptide 3(3-12)[MCP-1], CRD-Leu4Ile11Cys13 peptide 3(3-12)[MCP-1] was placed in the lower compartment of the migration chamber at various concentrations and 50,000 THP-1 cells were placed in the upper compartment. The number of cells in the lower compartment after 4 hours was then determined using the vital dye MTT. […] At higher concentrations (1 µM and 10 µM), there may be a small stimulation of migration in this experiment, although the magnitude of this migratory response was less than that seen with 3.25 ng/ml recombinant MCP-1. CRD-Leu4Ile11Cys13 peptide 3(3-12)[MCP-1] is unlikely to have any agonist activity that is significant at concentrations attainable in vivo.

[12] = listed as peptide 3(1-12)[MCP-1]

NCCCC[C@H](NC(=O)[C@H](CCC(N)=O)NC(=O)[C@@H](N)CCCCN)C(=O)O [KQK]
TGF-beta Activator [1]: -

EICADPKQKWVQ [Peptide 3]
co-mitogenic effect of MCP-1 (in words) [2]: completely abolished | inhibition of Jurkat cell infection by HIV, reverse transcriptase assay (in words) [3]: but not peptide 3 (100 µM) markedly inhibited virus replication | inhibition of Jurkat cell infection by HIV, reverse transcriptase assay (in words) ([3]; listed as Peptide 3(1-12)[MCP-1]): effective inhibitor | % inhibition at 100 µM versus MIP1α [4]: 120% | % inhibition at 100 µM versus MIP1α [4, 12]: > 95% | % inhibition at 100 µM versus SDF-1α [5]: 108% | % inhibition at 100 µM versus SDF-1α [5, 12]: > 95% | % inhibition at 100 µM versus MCP-1 [6]: 108% | % inhibition at 100 µM versus MCP-1 [6, 12]: > 95% | inhibition of HIV infectivity of THP-1 cells, p24gag [7]: more than 80% | inhibition of HIV infectivity of THP-1 cells, p24gag ([7]; listed as second peptide, spanning amino acids 51 to 62 of human MCP-1, 100 µM): 83 ± 7% | inhibition of HIV infection of Jurkat T-cells, p24gag (in words) [8]: ineffective | inhibition of HIV infection of Jurkat T-cells, p24gag (in words) ([8]; listed as second peptide, spanning amino acids 51 to 62 of human MCP-1): did not inhibit | % inhibition at 100 µM versus TGFβ1 [9]: n.s. | % inhibition at 100 µM versus TGFβ1 [9, 12]: did not affect | % inhibition at 100 µM versus IL8 [10]: 106% | % inhibition at 100 µM versus IL8 [10, 12]: > 95% | association constant (ka) for binding to THP-1 cells [11]: about 10 µM | association constant (ka) for binding to THP-1 cells ([11]; listed as peptide 3): 7 µM | Kd ([11]; read-out: affinity constant for binding to THP-1 cells in the presence of 100 µM peptide 2, biotinylated peptide): 8 µM

SYRRITSSKCPKEAV [Peptide 2]
% inhibition at 100 µM versus MIP1α [4]: n.s. | % inhibition at 100 µM versus SDF-1α [5]: n.s. | % inhibition at 100 µM versus MCP-1 [6]: 23% | % inhibition at 100 µM versus MCP-1 ([6]; listed as peptide 2(1-15)[MCP-1]): 20% | inhibition of HIV infectivity of THP-1 cells, p24gag [7]: 28 ± 5% and 28% ± 5% | agonist activity (in words) (THP-1 cells): stimulated chemotaxis | % inhibition at 100 µM versus TGFβ1 [9]: n.s. | % inhibition at 100 µM versus IL8 [10]: n.s.
